These results are taken from publication PMC11094793, “Discovery of LLC0424 as a Potent and Selective in Vivo NSD2 PROTAC Degrader” (Journal of Medicinal Chemistry, 2024).

Molecules are shown by their SMILES.

The assay deals with VCaP cells. Nature of the assay: TMT global proteomics in VCaP cells. Particulars: for Abundance Ratio (log2): (LLC0424) / (DMSO): VCaP. It counts as cell-based, human. Here is the method:
We conducted a global proteomic assay using tandem mass tags (TMT) labeled mass-spectrometry to unbiasedly quantify the protein change upon LLC0424 treatment in VCaP and RPMI-8402 cells. […] We further used SEM cell line to cross-validate the selectivity of LLC0424 for NSD2 over NSD1 and NSD3 as well as CRBN neo-substrates IKZF1, IKZF3, GSPT1, and CK-1α using immunoblotting. […] When we increased the treatment time of LLC0424 in SEM cells, we observed mild decrease of GSPT1 from 12 h (SI, Figure S3F).
Figure 5 LLC0424 was a selective NSD2 degrader. (A) Unbiased global proteomics analysis of LLC0424 in VCaP cells after 6 h treatment of DMSO or 2 μM LLC0424. (B) Mass-spec quantification of NSD2 protein. (C) Heatmap for the level of PWWP-1 domain-containing proteins in VCaP cells treated with DMSO or 2 μM LLC0424. (D) Immunoblotting of NSD2, NSD1, NSD3, GSPT1, CK-1α, IKZF1, IKZF3, and H3 in SEM cells treated with 2 μM LLC0424 for various time points.
RPMI-8402 cells were plated at 10 × 10^6 cells per plate on 10 cm tissue culture plates overnight before treating with DMSO (control) or 2 μM LLC0424 with 3 replicates for each treatment. After 8 h, whole cell lysates were collected using RIPA buffer (ThermoFisher Scientific) and quantified using Pierce Bovine Serum Albumin Standard Pre-Diluted Set (ThermoFisher Scientific). Cell lysates were proteolyzed and labeled with TMT 6-plex Isobaric Label Reagent (ThermoFisher Scientific) according to the protocol from the manufacturer and subjected to 8 fractions of liquid chromatography–mass spectrometry (LC-MS)/MS analysis as described.[33] We plotted the results using graphpad prism. To gain protein changes with high confidence, we screened the results of (LC-MS)/MS analysis with the criteria of peptides number >4 and unique peptides number >1.

In the case of `O=C1CCC(N2C(=O)c3ccc(N4CCC(NC(=O)c5ccc(NC(=O)c6ccc(CN(C(=O)c7ccc8c(c7)OCC(=O)N8)C7CC7)cc6)cc5)CC4)cc3C2=O)C(=O)N1` (stereo not drawn) [compound 10l, N-Cyclopropyl-N-(4-((4-((1-(2-(2,6-dioxopiperidin-3-yl)-1,3-dioxoisoindolin-5-yl)piperidin-4-yl)carbamoyl)phenyl)carbamoyl)benzyl)-3-oxo-3,4-dihydro-2H-benzo[b][1,4]oxazine-7-carboxamide], the “proteins significantly decreased in global proteomics” value (VCaP cells, 2 μM, 6 h) is on record as “only NSD2 significantly decreased”. Besides, the “Abundance Ratio (log2): (LLC0424) / (DMSO)” value is listed as -0.01 (protein accession O75369), 0.01 (protein accession P78527), 0.04 (protein accession Q13813) and -0.06 (protein accession Q15149). Further, where the note is “global proteomics, both cell lines (VCaP and RPMI-8402), 2 μM”, the “selectivity for NSD2 over other PWWP domain-containing proteins” value is listed as “selective for NSD2 over other PWWP domain-containing proteins”.
